Experimental data as given in PubChem BioAssay AID686979 (National Center for Advancing Translational Sciences (NCATS), 2013).
About 50,000 (12%) of roughly 420,000 compounds were called active. Inconclusive results, whose numbers are uncertain, are shown with a selection of clear calls. Calls come from the whole dose curve; as a rule, active = well fitted inhibition curve with a large enough effect; inconclusive = small, poorly fitted or top-dose-only effect; inactive = flat fitted curve, though single readings scatter. Potencies of inconclusive entries are left out as doubtful fits.

Test: qHTS for Inhibitors of human tyrosyl-DNA phosphodiesterase 1 (TDP1): qHTS in cells in presence of CPT; note: nearly all actives have a fitted effect of over 55% in size
Conditions: chicken DT40 Tdp1-/-;hTDP1 cells + 20 nM CPT, ATP luminescence, 48 h; activity change, negative = growth inhibition: at 46.2 µM (top of the series)
How it was run: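 Chicken DT40 Tdp1-/- cells stably complemented with human TDP1 were seeded at 400 cells/well in medium containing 20 nM camptothecin, exposed to pin-transferred compounds, and grown at 37 °C for at least 48 hr. Viability was read as ATP luminescence.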
% is set by controls: 0 for no effect and ±100 for the full control effect; potency is the fitted concentration of half-maximal effect; tags give direction and shape of the fitted curve.

Structure (SMILES)	activity change, negative = growth inhibition	Potency
COc1ccc(Cn2nnc3c(=O)[nH]c(C4CCCN(C(=O)c5ccccc5)C4)nc32)cc1 (centres undefined)	inactive: -28.8%	
O=S(=O)(Nc1cccc2cccnc12)c1ccccc1		active: 13 µM
O=C(Cn1cc(SCc2ccccc2)c2ccccc21)N1CCCCC1		inconclusive [inhibitor, single point]
COc1ccccc1OCc1nn[nH]n1	inactive: 0.678%	
CCOc1ccc(NC(=O)COC(=O)c2ccc3ncsc3c2)cc1OCC	inactive: 23.1%	
Cc1cc(C)n2nc(C(=O)OCC(=O)NNC(=O)c3ccc(Cl)cc3)nc2n1	inactive: 6.36%	
COc1ccccc1C(=O)Oc1ccccc1C(=O)Nc1ccccc1		inconclusive [inhibitor, single point]
N#Cc1c(-n2ncnc2-c2ccc(Br)cc2)sc2c1CCCCC2		inconclusive [inhibitor, single point]
CSc1ccc(CNC(=O)C2CCN(c3nnc(-n4cccc4CNc4ccc(C)cc4)s3)CC2)cc1		inconclusive [inhibitor, single point]
CCOC(=O)c1c(NC(=O)CSc2n[nH]c(-c3ccco3)n2)sc(C)c1C	inactive: -25.7%	
CCOC(=O)c1ccccc1OCc1cc(/C=N/NC(=O)c2ccncc2)ccc1OC		inconclusive [inhibitor, single point]
COc1ccc(OC)c(CCNC(=O)C2CCN(c3ncnc4c3nc3n4CCCCC3)CC2)c1		inconclusive [inhibitor, single point]
C=CCNC(=O)c1ccccc1NC(=O)c1ccccc1SC	inactive: -0.621%	
COc1cccc(/C=C/C(=O)c2cccc([N+](=O)[O-])c2)c1		inconclusive [inhibitor, single point]
CCc1ccc(CNC(=O)CN(c2ccc(C)cc2)S(=O)(=O)N(C)C)cc1	inactive: -15.2%	
CCOC(=O)c1cnn(-c2ccc(NS(=O)(=O)c3ccc(Cl)cc3)cc2)c1C(F)(F)F		inconclusive [inhibitor, partial curve, poor fit]
CNC(=O)Nc1ccccc1C(=O)Nc1ccccc1	inactive: -17.3%	
CCCCNS(=O)(=O)c1ccc(NC(=O)Cc2ccc(OC)cc2)cc1		active: 13 µM
Cc1ccc(-n2c(COc3cccc(C)c3)n[nH]c2=S)cc1		inconclusive [inhibitor, partial curve, poor fit]
NS(=O)(=O)c1ccc(CCNC(=O)C(=O)c2cn(CC(=O)N3CCOCC3)c3ccccc23)cc1	inactive: 8.18%	
CCC(=O)N1CCN(c2ccccc2NC(=O)COc2ccc(C(C)C)cc2)CC1		inconclusive [inhibitor, single point]
COC(=O)/C(=C\Nc1ccccc1)NC(=O)c1ccc(Cl)cc1Cl	inactive: -12.4%	
Cc1ccc(-n2nnnc2-c2nc3ccccc3s2)cc1		inconclusive [inhibitor, single point]
Cc1ccc(C)c(C(=O)C(C)OC(=O)c2cccn2C)c1 (centres undefined)		inconclusive [inhibitor, single point]
COc1ccc(CCN(C)C(=O)COc2ccc(N(C)S(=O)(=O)c3ccc(C)cc3)cc2)cc1OC		inconclusive [inhibitor, single point]

Structure (SMILES)	activity change, negative = growth inhibition	Potency
Cc1ccc(C)n1-c1cccc(NC(=O)c2ccccc2)c1		inconclusive [inhibitor, single point]
Brc1ccc(-c2nnc(SCCC3OCCCO3)o2)cc1		inconclusive [inhibitor, single point]
COc1ccccc1OCC(=O)Nc1ccc(S(=O)(=O)N2CCCCCC2)cc1	inconclusive: -31.6% [inhibitor]	
O=C(NCc1ccc2c(c1)OCO2)c1cc([N+](=O)[O-])ccc1N1CCOCC1		active: 3.26 µM
CCN(CC)C(=O)C(=O)c1cccn1-c1cccc(-n2cccc2C(=O)C(=O)N(CC)CC)c1C#N		inconclusive [inhibitor, single point]
CC(C)C1Oc2ccccc2N(CC(=O)NC2CCCCC2)C1=O (centres undefined)		inconclusive [inhibitor, single point]
COc1ccc(OC)c(S(=O)(=O)N2CCc3ccccc3C2)c1	inactive: -19.1%	
CCN(CC)S(=O)(=O)c1ccc2c(c1)c(=O)c(C(=O)NCCc1ccc(OC)c(OC)c1)cn2C		active: 18.4 µM
CCc1c(C)nc2ncnn2c1N1CCCC(C(=O)NCc2ccco2)C1 (centres undefined)		inconclusive [inhibitor, partial curve]
CC(=O)Nc1ccc(S(=O)(=O)N2CCCC(C(=O)N3CCN(c4ccccc4)CC3)C2)cc1 (centres undefined)		active: 23.1 µM
COc1ccc([C@H]2CC(=O)C=C(c3ccc(F)nc3)C2)cc1OC		inconclusive [inhibitor, single point]
O=c1[nH]c2c(c(=O)[nH]1)OCN(Cc1ccccc1)C2	inactive: -2.67%	
CCN(CC)CCN(C(=O)c1ccc2c(c1)CCCC2)c1nc2c(OC)cccc2s1		inconclusive [inhibitor, single point]
COc1ccc(C(=O)NCCN2CCOCC2)cc1OC	inactive: -2.23%	
CCc1ccccc1NC(=O)c1ccc(Cn2cc([N+](=O)[O-])cn2)cc1	inactive: -2.58%	
COc1ccc(OC)c(NC(=O)CN2CCC(C(=O)c3ccc(C)cc3)CC2)c1		active: 25.9 µM
CCN(CC)Cc1ccc(NC(=O)c2sc3cc(Cl)ccc3c2Cl)cc1		inconclusive [inhibitor, single point]
CCC(=O)Nc1ccc(Cl)c(NC(=S)NC(=O)c2cc3ccccc3o2)c1	inactive: -2.71%	
Cc1cc([N+](=O)[O-])nn1Cc1noc(C(=O)NCCCn2ccnc2)n1	inactive: 2.24%	
C=CCN(c1ccc(Cl)cc1)S(=O)(=O)c1cccc(C(=O)O)c1	inactive: 10.3%	
CCN(CC)C(=O)C1CCN(Cc2cccc(OCc3ccccc3)c2)CC1	inactive: -21.8%	
COc1ccc(CN(Cc2ccccn2)C(=O)CN2C(=O)C(C)Oc3ccccc32)cc1 (centres undefined)		inconclusive [inhibitor, single point]
CC(=O)Nc1ccccc1C(=O)C(=O)O		inactive
CCOC(=O)c1nnn(-c2nonc2N)c1COc1cc(C)c(Cl)c(C)c1		inconclusive [inhibitor, single point]
CCCCC1Cc2[nH]c(=S)[nH]c(=O)c2C(c2ccc(C(C)C)cc2)O1 (centres undefined)		active: 16.4 µM

Structure (SMILES)	activity change, negative = growth inhibition	Potency
CC(O)(c1cccnc1)c1nc(-c2cccc(F)c2)cs1 (centres undefined)		inconclusive [inhibitor, single point]
CCOC(=O)c1ccccc1NC(=O)c1c(-c2ccccc2)noc1C		active: 9.2 µM
COc1ccc(C#Cc2c(-c3ccsc3)oc3ccc(N4CCOCC4)cc23)cc1		inconclusive [inhibitor, single point]
c1coc(CNc2nc3nonc3nc2NCc2ccco2)c1		inconclusive [inhibitor, single point]
Cc1ccnc(NC(=O)C2CCCN(c3ncnc4c3nc3n4CCCCC3)C2)c1 (centres undefined)	inactive: -9.64%	
Cn1nnnc1SCC1=C(C(=O)O)N2C(=O)C(NC(=O)Cn3nc(C(F)F)cc3C3CC3)C2SC1 (centres undefined)	inactive: -8.02%	
CCC(=O)N1CCc2cc(Br)cc(S(=O)(=O)NCc3cccc(OC)c3)c21	inactive: -0.933%	
CCn1c(SCC(=O)NC2CC2)nnc1-c1ccc(C)cc1	inactive: 0.716%	
CCCCc1nc2ccccc2c(=O)n1NC(=O)c1c(O)c2c(n(CC(C)C)c1=O)CCCC2		active: 14.6 µM
Cc1ccc(-c2cc(N)n(Cc3cccc(Cl)c3)n2)cc1	inactive: -22.3%	
COc1ccc(Cc2nc3ccc(C(=O)NCC4CCOCC4)cc3o2)cc1OC		inconclusive [inhibitor, partial curve]
COc1ccc(/C=N/N=C/c2c[nH]c(=O)c(C#N)c2Nc2ccccc2)cc1		inconclusive [inhibitor, partial curve, poor fit]
COc1ccccc1S(=O)(=O)NCc1ccc(C(=O)N(C)Cc2ccc(F)cc2)cc1		active: 20.6 µM
CC1(C)CC(=O)C2=C(C1)c1c(ccc3ccccc13)NC2c1ccco1 (centres undefined)		inconclusive [inhibitor, single point]
COc1cccc(NC(=O)Cn2c(=O)n(-c3ccccc3)c(=O)c3c4c(sc32)CCCC4)c1		inconclusive [inhibitor, partial curve, poor fit]
COc1cccc(-c2onc3ccc(C4(C)OCCO4)cc23)c1		inconclusive [inhibitor, single point]
CCN(CC)C(=O)CSc1nc(-c2ccccc2)cc(-c2ccc(OC)cc2)c1C#N		inconclusive [inhibitor, single point]
C=CC[n+]1c(/C=C2\C=Cc3cc(C)ccc3N2CC)ccc2ccccc21		active: 0.184 µM
CC(C)=CCC[C@H](C)C[C@@H]1CC2=C(C(=O)OC(C)(C)O2)[C@H](c2ccc(Cl)cc2)O1		inconclusive [inhibitor, single point]
COc1ccccc1-c1noc(-c2ccc(NCc3ccccc3)c([N+](=O)[O-])c2)n1		inconclusive [inhibitor, single point]
O=C(CCSc1nccn1Cc1ccccc1)N1CCOCC1	inactive: -2.24%	
O=C(Nc1ccc(S(=O)(=O)N2CCCC2)cc1)c1cc(F)c(F)cc1Cl		inconclusive [inhibitor, single point]
COc1ccccc1CNc1cc(C)ccn1	inconclusive: -30.8% [inhibitor]	
CCOC(=O)c1ccccc1NC(=O)COC(=O)CC1CCCCC1		inconclusive [inhibitor, single point]
